This is one part of the list. Sequences were assembled here from the parent chain. Values near 0.05 are background.
B1: TEV protease; numbered along this chain (parent)
chain: MGESLFKGPRDYNPISSSICHLTNESDGHTTSLYGIGFGPFIITNKHLFRRNNGTLVVQSLHGVFKVKDTTTLQQHLVDGRDMIIIRMPKDFPPFPQKLKFREPQREERICLVTTNFQTKSMSSMVSDTSCTFPSGDGIFWKHWIQTKDGQCGSPLVSTRDGFIVGIHSASNFTNTNNYFTSVPKNFMELLTNQEAQQWVSGWRLNADSVLWGGHKVFMVKPEEPFQPVKEATQL
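Note: Bxb1 expression induced with 0.2% (w/v) L-rhamnose at OD600 near 0.5, cultures sampled hourly, flipped fraction per protease–substrate barcode pair counted by paired-end Illumina sequencing.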

Variants of: B1
Assay: raw area under fraction-flipped curve 0-4 h after induction (AUC4h, not background-subtracted), DNA-recorder readout of cleavage of the substrate (dimensionless); higher = more cleavage of the substrate by the protease variant
Conditions: temperature: 34 °C; time window: 0-4 h after rhamnose induction
Protocol: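 In vivo DNA recorder in E. coli TOP10(DE3) ΔrhaA at 34 °C. Each TEVp single-site mutant (parent TEVp 0) is paired with a single-site variant of the 7-mer TEVs (canonical ENLYFQ|S). The substrate sits between flexible linkers in a Bxb1-sfGFP-TEVs-SsrA fusion, so cleavage stabilises Bxb1 and speeds flipping of a recombination array, read by NGS. The value is the raw area under the fraction-flipped curve over 0-4 h after rhamnose induction (AUC4h), with ≥20 reads per time point. It is not background-subtracted; inactive controls average about 0.047.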
For MGESLFKGPRDYNPISSSICHLTNESDGHTTSLYGIGFGPFIITNKHLFRRNNGTLVVQSLHGVFKVKDTTTLQQHLVDGRDMIIIRMPKDFPPFPQKLKFREPQREERICLVTTNFQTKSMSSMVSDTSCTFPHGDGIFWKHWIQTKDGQCGSPLVSTRDGFIVGIHSASNFTNTNNYFTSVPKNFMELLTNQEAQQWVSGWRLNADSVLWGGHKVFMVKPEEPFQPVKEATQL [S135H], the “area with substrate ENLYFAS” value was 0.0565, the “area with substrate ENLYFCS” value was 0.0477 and the “area with substrate ENLYFDS” value was 0.0671. For the same variant, the “area with substrate ENLYFES” value was 0.0733, the “area with substrate ENLYFFS” value was 0.0729 and the “area with substrate ENLYFGS” value was 0.0643. For the same variant, the “area with substrate ENLYFIS” value was 0.0435, the “area with substrate ENLYFKS” value was 0.0606 and the “area with substrate ENLYFLS” value was 0.0624. The “area with substrate ENLYFNS” value was 0.0627, the “area with substrate ENLYFPS” value was 0.0709 and the “area with substrate ENLYFRS” value was 0.0595. For the same variant, the “area with substrate ENLYFSS” value was 0.0569.
With MGESLFKGPRDYNPISSSICHLTNESDGHTTSLYGIGFGPFIITNKHLFRRNNGTLVVQSLHGVFKVKDTTTLQQHLVDGRDMIIIRMPKDFPPFPQKLKFREPQREERICLVTTNFQTKSMSSMVSDTSCTFPSGDGIFWKHWGQTKDGQCGSPLVSTRDGFIVGIHSASNFTNTNNYFTSVPKNFMELLTNQEAQQWVSGWRLNADSVLWGGHKVFMVKPEEPFQPVKEATQL [I145G] the “area with substrate ENLYFAS” value was 0.078, the “area with substrate ENLYFDS” value was 0.0524 and the “area with substrate ENLYFGS” value was 0.0525. The “area with substrate ENLYFHS” value was 0.0533, the “area with substrate ENLYFIS” value was 0.0502 and the “area with substrate ENLYFKS” value was 0.0436. For the same variant, the “area with substrate ENLYFPS” value was 0.0806, the “area with substrate ENLYFTS” value was 0.0545 and the “area with substrate ENLYFWS” value was 0.0469. For the same variant, the “area with substrate ENLYFYS” value was 0.0564.
With MGESLFKGPRDYNPISSSICHLTNESDGHTTSLYGIGFGPFIITNKHLFRRNNGTLVVQSLHGVFKVKDTTTLQQHLVDGRDMIIIRMPKDFPPFPQKLKFREPQREERICLVTTNFQTKSMSSMVSDTSCTFPSGDGIFWKHWNQTKDGQCGSPLVSTRDGFIVGIHSASNFTNTNNYFTSVPKNFMELLTNQEAQQWVSGWRLNADSVLWGGHKVFMVKPEEPFQPVKEATQL [I145N] the “area with substrate ENLYFAS” value was 0.0786, the “area with substrate ENLYFDS” value was 0.0719 and the “area with substrate ENLYFES” value was 0.0786. For the same variant, the “area with substrate ENLYFFS” value was 0.0614, the “area with substrate ENLYFHS” value was 0.0753 and the “area with substrate ENLYFIS” value was 0.0599. For the same variant, the “area with substrate ENLYFMS” value was 0.0738, the “area with substrate ENLYFNS” value was 0.0622 and the “area with substrate ENLYFPS” value was 0.0542. The “area with substrate ENLYFRS” value was 0.0455, the “area with substrate ENLYFTS” value was 0.0595 and the “area with substrate ENLYFWS” value was 0.0515.
With MGESLFKGPRDYNPISSSICHLTNESDGHTTSLYGIGFGPFIITNKHLFRRNNGTLVVQSLHGVFKVKDTTTLQQHLVDGRDMIIIRMPKDFPPFPQKLKFREPQREERICLVTTNFQTKSMSSMVSDTSCTFPSGDGIFWKHWIQTKPGQCGSPLVSTRDGFIVGIHSASNFTNTNNYFTSVPKNFMELLTNQEAQQWVSGWRLNADSVLWGGHKVFMVKPEEPFQPVKEATQL [D149P] the “area with substrate ENLYFAS” value was 0.0644, the “area with substrate ENLYFDS” value was 0.0417 and the “area with substrate ENLYFFS” value was 0.104. The “area with substrate ENLYFHS” value was 0.0487, the “area with substrate ENLYFRS” value was 0.058 and the “area with substrate ENLYFYS” value was 0.0518.
With MGESLFKGPRDYNPISSSICHLTNESDGHTTSLYGIGFGPFIITNKHLFRRNNGTLVVQSLHGVFKVKDTTTLQQHLVDGRDMIIIRMPKDFPPFPQKLKFREPQREERICLVTTNFQTKFMSSMVSDTSCTFPSGDGIFWKHWIQTKDGQCGSPLVSTRDGFIVGIHSASNFTNTNNYFTSVPKNFMELLTNQEAQQWVSGWRLNADSVLWGGHKVFMVKPEEPFQPVKEATQL [S121F] the “area with substrate ENLYFAS” value was 0.0574, the “area with substrate ENLYFFS” value was 0.0634 and the “area with substrate ENLYFGS” value was 0.0317. The “area with substrate ENLYFIS” value was 0.0535, the “area with substrate ENLYFKS” value was 0.053 and the “area with substrate ENLYFLS” value was 0.0379. For the same variant, the “area with substrate ENLYFMS” value was 0.0659, the “area with substrate ENLYFPS” value was 0.0661 and the “area with substrate ENLYFRS” value was 0.06. The “area with substrate ENLYFSS” value was 0.0301 and the “area with substrate ENLYFVS” value was 0.0558.
With MGESLFKGPRDYNPISSSICHLTNESDGHTTSLYGIGFGPFIITNKHLFRRNNGTLVVQSLHGVFKVKDTTTLQQHLVDGRDMIIIRMPKDFPPFPQKLKFREPQREERICLVTTNFQTKSMSSMVSDTSCTFPSGQGIFWKHWIQTKDGQCGSPLVSTRDGFIVGIHSASNFTNTNNYFTSVPKNFMELLTNQEAQQWVSGWRLNADSVLWGGHKVFMVKPEEPFQPVKEATQL [D137Q] the “area with substrate ENLYFAS” value was 0.0059, the “area with substrate ENLYFDS” value was 0.0589 and the “area with substrate ENLYFIS” value was 0.057. The “area with substrate ENLYFLS” value was 0.0715, the “area with substrate ENLYFPS” value was 0.0582 and the “area with substrate ENLYFSS” value was 0.0675. The “area with substrate ENLYFTS” value was 0.0669 and the “area with substrate ENLYFWS” value was 0.0579.
In the case of MGESLFKGPRDYNPISSSICHLTNESDGHTTSLYGIGFGPFIITNKHLFRRNNGTLVVQSLHGVFKVKDTTTLQQHLVDGRDMIIIRMPKDFPPFPQKLKFREPQREERICLVTTNFQTKSMSSMVSDTSCTFPSGTGIFWKHWIQTKDGQCGSPLVSTRDGFIVGIHSASNFTNTNNYFTSVPKNFMELLTNQEAQQWVSGWRLNADSVLWGGHKVFMVKPEEPFQPVKEATQL [D137T], the “area with substrate ENLYFAS” value is reported as 0.0334, the “area with substrate ENLYFCS” value is reported as 0.0464 and the “area with substrate ENLYFFS” value is reported as 0.086. For the same variant, the “area with substrate ENLYFIS” value was 0.047, the “area with substrate ENLYFKS” value was 0.0394 and the “area with substrate ENLYFMS” value was 0.075. For the same variant, the “area with substrate ENLYFRS” value was 0.0697, the “area with substrate ENLYFSS” value was 0.0511 and the “area with substrate ENLYFTS” value was 0.0549. The “area with substrate ENLYFVS” value was 0.0477.
For MGESLFKGPRDYNPISSSICHLTNESDGHTTSLYGIGFGPFIITNKHLFRRNNGTLVVQSLHGVFKVKDTTTLQQHLVDGRDMIIIRMPKDFPPFPQKLKFREPQREERICLVTTNFQTKSMSSMVSDTSCTFPSGSGIFWKHWIQTKDGQCGSPLVSTRDGFIVGIHSASNFTNTNNYFTSVPKNFMELLTNQEAQQWVSGWRLNADSVLWGGHKVFMVKPEEPFQPVKEATQL [D137S], the “area with substrate ENLYFAS” value was 0.0598, the “area with substrate ENLYFCS” value was 0.0463 and the “area with substrate ENLYFGS” value was 0.0473. The “area with substrate ENLYFIS” value was 0.0488, the “area with substrate ENLYFKS” value was 0.0562 and the “area with substrate ENLYFTS” value was 0.0685. The “area with substrate ENLYFYS” value was 0.0593.
With MGESLFKGPRDYNPISSSICHLTNESDGHTTSLYGIGFGPFIITNKHLFRRNNGTLVVQSLHGVFKVKDTTTLQQHLVDGRDMIIIRMPKDFPPFPQKLKFREPQREERICLVTTNFQTKSMSSMVSDKSCTFPSGDGIFWKHWIQTKDGQCGSPLVSTRDGFIVGIHSASNFTNTNNYFTSVPKNFMELLTNQEAQQWVSGWRLNADSVLWGGHKVFMVKPEEPFQPVKEATQL [T129K] the “area with substrate ENLYFAS” value was 0.0582, the “area with substrate ENLYFCS” value was 0.0641 and the “area with substrate ENLYFDS” value was 0.027. For the same variant, the “area with substrate ENLYFFS” value was 0.0831, the “area with substrate ENLYFGS” value was 0.0587 and the “area with substrate ENLYFHS” value was 0.059. The “area with substrate ENLYFIS” value was 0.0766, the “area with substrate ENLYFMS” value was 0.0625 and the “area with substrate ENLYFSS” value was 0.062. For the same variant, the “area with substrate ENLYFTS” value was 0.0596 and the “area with substrate ENLYFVS” value was 0.0469.
